# In the supplement of paper PMC4166925:
# ± gives the standard deviation of the averaged measurements. Over roughly 33,000 sequences, “E-score (dimensionless, -0.5 to 0.5)” has its median near -0.046; the highest 2% begin near 0.36. Some of the results follow.
# System: T1, SpTbr T-box DNA-binding domain (GST fusion)
# T1 sequence: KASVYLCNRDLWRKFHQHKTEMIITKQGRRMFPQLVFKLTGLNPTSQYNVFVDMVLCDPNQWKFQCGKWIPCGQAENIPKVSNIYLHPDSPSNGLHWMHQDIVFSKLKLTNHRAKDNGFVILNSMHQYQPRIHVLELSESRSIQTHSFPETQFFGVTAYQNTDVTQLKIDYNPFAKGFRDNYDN
# Test: PBM E-score of 8-mer (E-score (dimensionless, -0.5 to 0.5)); Tbr is Tbrain of the sea star Patiria miniata (Pm) or the sea urchin Strongylocentrotus purpuratus (Sp); higher = stronger binding preference; most listed sequences are background and not binding sites
# Conditions: the construct has about 5 more residues each side
# How it was run: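 Primer extension turned Universal Agilent oligonucleotide arrays double-stranded. They were incubated with 200 nM protein in PBS (pH 7.5); the protein was a GST-fused Tbr T-box DNA-binding domain expressed in BL21 E. coli at 20 °C and purified on glutathione. Every ungapped 8-mer was scored from the scanned, quantified probe intensities, and the Universal PBM Analysis Suite gave each an enrichment E-score averaged over duplicate arrays.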
row,Sequence,PBM E-score of 8-mer
1,CGTCCAAA,-0.0151 ± 0.0085
2,AAACGATA,-0.00843 ± 0.11
3,ATTTTAGG,-0.2408 ± 0.00085
4,CGGAGGAC,-0.212 ± 0.039
5,AACGGGTA,0.126 ± 0.038
6,AAAAGTAG,-0.241 ± 0.038
7,CACCGACA,0.286 ± 0.031
8,AGAGTGAG,0.13 ± 0.016
9,ACTTGTCA,0.4189 ± 0.00086
10,AGCAAGAC,-0.162 ± 0.034
11,ACACGCCG,0.232 ± 0.0089
12,GTGCCCGA,0.0234 ± 0.045
13,AAGTACTG,-0.169 ± 0.014
14,AAACACAA,0.0536 ± 0.043
15,AGACGCGA,0.078 ± 0.074
16,CTTGCGTA,-0.0442 ± 0.028
17,ACATCCCG,0.11 ± 0.014
18,GCAGAAAC,-0.138 ± 0.0036
19,AGATCGCG,0.316 ± 0.011
20,AAGTTACG,-0.151 ± 0.01
21,GACACGCA,0.0676 ± 0.044
22,ACTAAAAG,0.00605 ± 0.11

row,Sequence,PBM E-score of 8-mer
1,GCTAGATA,-0.123 ± 0.045
2,TATAGTCA,0.0371 ± 0.032
3,GTATGGTA,-0.228 ± 0.018
4,CCAGACTC,-0.269 ± 0.021
5,AAGCTGAG,-0.052 ± 0.032
6,CTAAGAGA,-0.216 ± 0.017
7,CGAGAACC,0.184 ± 0.018
8,CCCCTAGG,-0.0502 ± 0.012
9,GAGAGCAC,0.0632 ± 0.013
10,GACAGTAC,-0.0333 ± 0.049
11,GAATCTAC,-0.235 ± 0.048
12,CTTAGTTC,-0.216 ± 0.048
13,ACCGTTCT,0.0197 ± 0.05
14,AAGACGGC,0.115 ± 0.0055
15,GAGTGCAA,0.0398 ± 0.012
16,TCAAAGGA,-0.189 ± 0.035
17,CGCAATGC,0.0511 ± 0.0051
18,ACCACAGT,0.0252 ± 0.11
19,ATGTTATG,-0.0111 ± 0.033
20,GTAGATAC,-0.268 ± 0.076
21,CACCACTA,0.181 ± 0.013
22,CAGGACCC,-0.238 ± 0.028

row,Sequence,PBM E-score of 8-mer
1,CGCAGTGA,-0.0257 ± 0.037
2,ATTGTAAC,0.0531 ± 0.038
3,CCAGGACG,-0.125 ± 0.059
4,GCAGGTCC,-0.259 ± 0.039
5,CCACGAAC,0.0807 ± 0.05
6,ACATGACG,0.135 ± 0.029
7,CAAAATTA,0.1946 ± 0.0015
8,CCCCAAGG,0.192 ± 0.0075
9,CTGCTTCA,0.0128 ± 0.0049
10,CCAACTGA,-0.103 ± 0.0021
11,AAACATGT,0.00992 ± 0.11
12,CGTCATAA,-0.00366 ± 0.035
13,AAATCCAC,-0.0225 ± 0.078
14,GTTGCACA,0.0981 ± 0.012
15,ATTCACAG,0.395 ± 0.025
16,ATGAGAGG,-0.118 ± 0.006
17,AGCCCGTA,-0.124 ± 0.097
18,ACGAAGAA,-0.169 ± 0.0023
19,AGAGCTTG,-0.238 ± 0.017
20,GTACGATA,-0.21 ± 0.017
21,AACGTTTA,-0.187 ± 0.062
22,GCCACTCC,-0.0728 ± 0.039

row,Sequence,PBM E-score of 8-mer
1,ACGGAATA,0.107 ± 0.0055
2,ACGCCGGA,-0.047 ± 0.017
3,CCCGTCGC,0.0384 ± 0.034
4,AAACACCC,0.1718 ± 0.0003
5,AGACTTTG,-0.0212 ± 0.042
6,AGGGGGGG,-0.281 ± 0.018
7,ACTGCTAG,0.0381 ± 0.029
8,AATTTTGA,-0.127 ± 0.033
9,GATCAGTA,-0.163 ± 0.029
10,CCAAGGAA,-0.0592 ± 0.03
11,CCCGTCGA,-0.0711 ± 0.015
12,GATAAAAA,0.0565 ± 0.075
13,AAAGTGTC,0.39331 ± 0.00039
14,ACTATGGA,-0.251 ± 0.0092
15,ATATACTG,-0.241 ± 0.11
16,ATTTTTTC,-0.138 ± 0.032
17,AGGCAAGC,-0.0153 ± 0.022
18,CCAAGTAG,0.0306 ± 0.035
19,CCTGGTCG,-0.0356 ± 0.014
20,CGAGATTC,0.0466 ± 0.066
21,CATGATAC,-0.244 ± 0.02
22,CTGGCTGC,-0.103 ± 0.0078

row,Sequence,PBM E-score of 8-mer
1,CGTCCCTA,-0.0382 ± 0.032
2,CGAATGAA,-0.0859 ± 0.013
3,CTTTTGCC,-0.0897 ± 0.07
4,GGACAGCA,-0.127 ± 0.014
5,GAGACCCC,-0.0869 ± 0.047
6,ATTTCCTG,-0.0621 ± 0.052
7,CGGAAGGA,-0.246 ± 0.007
8,ACTGATAC,0.189 ± 0.025
9,ATTGACAC,0.418 ± 0.0052
10,AAATCTGC,-0.0436 ± 0.0086
11,GCTCGCCC,-0.196 ± 0.039
12,ATGGTTCA,-0.0498 ± 0.015
13,CTAGCATA,-0.027 ± 0.031
14,GATAACTA,-0.00475 ± 0.0059
15,AACCCGTA,-0.256 ± 0.051
16,CTGAGCGC,-0.0282 ± 0.0093
17,AAGGAGTC,-0.0918 ± 0.048
18,CTTGATCC,-0.106 ± 0.03
19,AAATGGTA,-0.152 ± 0.041
20,AAAATGCC,-0.216 ± 0.0041
21,CCTTAGAA,-0.242 ± 0.019
